# ± gives the standard deviation of the averaged measurements. In all, about 33,000 sequences were measured (“E-score (dimensionless, -0.5 to 0.5)”: median about -0.046, highest 2% from about 0.36 on). This is one part of the list.
# System: T1, SpTbr T-box DNA-binding domain (GST fusion)
# T1 sequence: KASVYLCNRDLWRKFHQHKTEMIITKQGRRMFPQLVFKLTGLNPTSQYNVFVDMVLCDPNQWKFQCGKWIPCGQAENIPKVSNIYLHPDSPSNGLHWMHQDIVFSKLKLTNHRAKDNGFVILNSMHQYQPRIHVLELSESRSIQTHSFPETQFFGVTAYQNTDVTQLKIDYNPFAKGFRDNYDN
# Test: PBM E-score of 8-mer (E-score (dimensionless, -0.5 to 0.5)); Tbr is Tbrain of the sea star Patiria miniata (Pm) or the sea urchin Strongylocentrotus purpuratus (Sp); higher = stronger binding preference; most listed sequences are background and not binding sites
# Settings: the construct has about 5 more residues each side
# In short: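 Each ungapped 8-mer received an enrichment E-score from the Universal PBM Analysis Suite, averaged over duplicate arrays. The proteins were Tbr T-box DNA-binding domains, covering the whole T-box plus about five flanking residues, fused to GST and expressed in BL21 E. coli at 20 °C before glutathione affinity purification. Universal Agilent oligonucleotide arrays were made double-stranded by primer extension and incubated with 200 nM protein in PBS (pH 7.5). The arrays were then scanned and quantified, and every 8-mer was scored from probe intensities.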
row,Sequence,PBM E-score of 8-mer
1,AAAAGCAT,-0.204 ± 0.0045
2,ATGACCAC,0.0339 ± 0.001
3,GATTCAAC,-0.0664 ± 0.011
4,GTGCGGAA,0.309 ± 0.013
5,GGACCATA,-0.116 ± 0.02
6,AGGGACAC,0.117 ± 0.036
7,GGGGCTTA,-0.188 ± 0.007
8,CAGTCTGC,-0.212 ± 0.091
9,AAACACCG,0.155 ± 0.0066
10,ACGATAGC,0.0829 ± 0.032
11,AGCGACGC,0.135 ± 0.053
12,ACTTTAGA,-0.0684 ± 0.056
13,ACTTCACG,0.312 ± 0.018
14,ACGCATTC,0.0158 ± 0.03
15,CACAGATA,-0.0553 ± 0.031
16,GACAGCGA,0.0826 ± 0.074
17,GGATCACC,-0.0658 ± 0.0065
18,CTTAATTC,-0.0766 ± 0.029
19,GGTTATTA,-0.187 ± 0.12
20,ATCACCCA,0.182 ± 0.0029
21,GTACGACA,-0.0615 ± 0.04
22,GGAATCCC,-0.146 ± 0.02
23,ACCTATTG,0.0768 ± 0.0017
24,GCGGCTCC,0.0339 ± 0.052
25,AGCACCCG,0.257 ± 0.011

row,Sequence,PBM E-score of 8-mer
1,CCGTGGCA,-0.0826 ± 0.0072
2,CGCTTAGC,0.1 ± 0.007
3,ACGAATAT,-0.0222 ± 0.075
4,AGCTCTAT,-0.0588 ± 0.064
5,AGGTAAAC,0.0131 ± 0.015
6,CGTGCAAG,0.08 ± 0.0073
7,CATATCCG,-0.0533 ± 0.035
8,GAATCCAC,0.0252 ± 0.019
9,CAACGTGC,0.103 ± 0.022
10,ATATAGCG,0.0507 ± 0.04
11,CTCCGTCC,-0.296 ± 0.029
12,AGCACCAT,0.19238 ± 0.00011
13,CATAAACA,0.07997 ± 0.00035
14,ACAGGTCT,-0.0109 ± 0.0033
15,GTGGAAAC,0.146 ± 0.018
16,GAGTACAC,0.0418 ± 0.013
17,CTAGGTTA,-0.16 ± 0.08
18,CGTTTAGC,0.0935 ± 0.14
19,AAATTGAG,-0.153 ± 0.021
20,ATTAGCGG,0.0476 ± 0.1
21,AACCCTTG,-0.208 ± 0.01
22,ATCAGGCG,0.039 ± 0.021
23,ATAACCGC,0.0986 ± 0.023
24,AATGCACA,0.00737 ± 0.0075
25,AGCTAATA,-0.00766 ± 0.01

row,Sequence,PBM E-score of 8-mer
1,CATCGGAA,-0.192 ± 0.016
2,CGAATGCC,0.0266 ± 0.036
3,CCTCATCG,-0.121 ± 0.047
4,CTTTAGTC,-0.114 ± 0.057
5,ATGCCGCG,0.0933 ± 0.021
6,GAGGTAGA,-0.0623 ± 0.02
7,CTAGACTA,-0.265 ± 0.038
8,GCCAGTAC,-0.0641 ± 0.077
9,CTTAAACA,0.134 ± 0.011
10,CTAGGGGC,0.146 ± 0.069
11,GACTGGAC,-0.11 ± 0.051
12,ACTACTGG,-0.153 ± 0.029
13,ATCGAGGG,-0.013 ± 0.021
14,CTGTCAGC,0.224 ± 0.038
15,CGCAACCC,-0.0232 ± 0.042
16,AACACGGG,-0.00125 ± 0.0046
17,GGGTCATA,-0.263 ± 0.0055
18,ACAAATCC,0.105 ± 0.023
19,CCGTAAGC,-0.113 ± 0.041
20,GTGGTCGA,0.0638 ± 0.032
21,AGACGCAC,-0.0631 ± 0.048
22,CCTCGCCA,0.148 ± 0.055
23,GGCGGCTA,-0.0524 ± 0.05
24,AGATCCTA,-0.201 ± 0.035
25,ACCCACGC,0.235 ± 0.037

row,Sequence,PBM E-score of 8-mer
1,CACCTTGA,0.367 ± 0.042
2,TTCGAGAA,0.0615 ± 0.024
3,CCACGTGG,0.0324 ± 0.043
4,GACTGGCC,0.0473 ± 0.08
5,CCACGTGC,0.114 ± 0.074
6,GCATCAAA,-0.16 ± 0.047
7,AAGACTAC,-0.0837 ± 0.0047
8,ATAGACTA,-0.105 ± 0.01
9,CCCACTAC,0.062 ± 0.0031
10,CATCTACA,-0.0335 ± 0.0034
11,AAGCAAGT,-0.0576 ± 0.043
12,ATCCAAGC,-0.0883 ± 0.097
13,CCGAGTCG,-0.0855 ± 0.013
14,TAACGGCA,-0.0181 ± 0.024
15,AACCTGCG,0.0936 ± 0.029
16,ACTCTTAA,-0.202 ± 0.085
17,ACTCATGC,0.063 ± 0.0068
18,ACACTCAC,0.366 ± 0.004
19,CGCTTTCC,-0.118 ± 0.054
20,CAGCCAAA,0.0186 ± 0.017
21,AAGTGGTG,0.205 ± 0.007
22,GCCGAGAA,0.115 ± 0.032
23,AGTTTCTA,-0.159 ± 0.03
24,CTTTCAGC,-0.162 ± 0.032
25,TCGATTAA,-0.058 ± 0.051

row,Sequence,PBM E-score of 8-mer
1,AGTGCGCC,-0.0205 ± 0.057
2,CGGCTATA,-0.0419 ± 0.069
3,AACCCCTT,-0.0308 ± 0.031
4,CTCCAAAA,-0.149 ± 0.074
5,CAAGCACC,0.0313 ± 0.011
6,CTTACCTA,-0.163 ± 0.054
7,GACTCGAC,-0.0494 ± 0.0017
8,ACCACACG,0.26 ± 0.039
9,GCCTGGTA,-0.00591 ± 0.042
10,CATGGAGG,-0.135 ± 0.027
11,CTAGCGCC,0.265 ± 0.021
12,GGTCTAAC,-0.0676 ± 0.032
13,AAGTGTGC,0.3891 ± 0.00091
14,CACTACCA,0.0725 ± 0.033
15,GCTGTTAC,0.0324 ± 0.031
16,AACCAACT,-0.171 ± 0.062
17,GTAGAGAC,-0.094 ± 0.029
18,ATTTGGTC,-0.107 ± 0.054
19,ACATAACC,0.03482 ± 0.00013
20,ACGCATCC,0.0665 ± 0.015
21,CCTTTTGA,0.0614 ± 0.015
22,CAGCGTGG,-0.111 ± 0.012
23,CACGGCTC,0.0832 ± 0.056
24,GCGTACAA,-0.0172 ± 0.059
25,ACTATGCG,0.123 ± 0.013

row,Sequence,PBM E-score of 8-mer
1,CTCGCATC,0.129 ± 0.052
2,AGCATGAA,0.0301 ± 0.0045
3,ATGACCTC,0.00034 ± 0.019
4,AATGGTCT,-0.0457 ± 0.068
5,ACTCAGCG,-0.0659 ± 0.13
6,GGGCAAGA,-0.184 ± 0.08
7,GATTAGAA,-0.143 ± 0.065
8,CTTCAGAC,-0.143 ± 0.032
9,CTATGTTA,-0.0604 ± 0.011
10,CCGTTTAC,0.108 ± 0.083
11,CATGTACA,-0.162 ± 0.012
12,AGGGGAAA,-0.213 ± 0.03
13,AACTGCGC,-0.0427 ± 0.13
14,CCGTGACG,0.201 ± 0.0074
15,AATTGGCG,0.158 ± 0.0053
16,GTAGCCAC,-0.0261 ± 0.014
17,GATGATGA,-0.0188 ± 0.039
18,AAGATTTG,-0.178 ± 0.04
19,CAACGTCC,-0.0399 ± 0.046
20,AAGATTGT,0.18 ± 0.063
21,ATTACTCC,-0.0237 ± 0.073
22,GAGTAGGA,-0.17 ± 0.034
23,CAACTAGA,-0.151 ± 0.086
24,AAGATATC,-0.00832 ± 0.034
25,CTATTTGC,-0.0356 ± 0.021

row,Sequence,PBM E-score of 8-mer
1,CCTCGTTA,-0.0711 ± 0.018
2,GCGGCTTA,-0.0848 ± 0.1
3,GTCAAATA,0.0335 ± 0.0093
4,CTTATATA,0.0515 ± 0.018
5,CGCACTTC,0.356 ± 0.02
6,AAATTACA,0.0963 ± 0.048
7,GGTCGGCA,-0.058 ± 0.026
8,ACATCTTC,-0.0301 ± 0.031
9,AAGAGGCT,-0.161 ± 0.0026
10,GATCGCGC,0.352 ± 0.025
11,TCCCTAGA,-0.273 ± 0.0067
12,CGTTCATA,0.00922 ± 0.017
13,CAACCTGA,-0.0529 ± 0.059
14,CACGATAA,0.104 ± 0.02
15,CATGCCGC,-0.0385 ± 0.067
16,ACCGTTAA,0.166 ± 0.061
17,GAGTTTGA,0.00341 ± 0.029
18,ACGGAAAC,0.0444 ± 0.063
19,ACCTGGCC,-0.0587 ± 0.06
20,CATATACG,-0.0849 ± 0.043
21,ATTTATCG,0.129 ± 0.061
22,CGAGTGCC,0.163 ± 0.036

# From the supplement of paper PMC4166925
